Laboratory results as given in the supplement of paper PMC11417369.
± gives the standard deviation of the averaged measurements. This is one part of the list.

Test system: PfAP2-G AP2 domain (GST-tagged)
Assay: gcPBM binding intensity (ln(normalized median fluorescence intensity)); higher = stronger DNA binding
Outline: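 In this array assay, P. falciparum DNA-binding domains with a GST tag, expressed in E. coli, were applied for 1 h to primer-extended double-stranded 36-bp intergenic genomic probes and negative controls on an Agilent 4 × 180k array. Bound protein was visualised with Alexa488 anti-GST antibody at 488 nm. Binding intensity is the highest Masliner-normalised natural-log median intensity across replicate spots of either probe orientation.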

Row | Sequence | gcPBM binding intensity (ln)
1 | ATCTACATATATTATTGTACATTGTTAAAAATTTAT [XGTACX_site7769] | 10.8 ± 0.46
2 | TTTCGTAATATGCGTGTGCACAATGAGTCCATATCT | 11.2 ± 0.81
3 | GTTCAAAATATGAACACACACATATATATATATATA [CACACA_site2057] | 10.1 ± 0.31
4 | TTTTTTTTTTTTTGGGGTACATTTTAATTAATATTA [XGTACX_site4866] | 11.4 ± 0.86
5 | TAAAATATAATTAGCACACATATATAAAATATATAT [CACACA_site4093] | 9.87 ± 0.18
6 | GTTGTTTCTATAAATTGTACTTAAATATAATTATAT [XGTACX_site585] | 11.2 ± 0.72
7 | ATATATTGTATGTGCTCACACATGTTTCGATATTAT [CACACA_site4336] | 10.2 ± 0.15
8 | GTAAATATGTTTATTAGTACACATATGAAAATAAAT [XGTACX_site5820] | 11.3 ± 0.77
9 | ACGCACGAAATAAATACATGCATATTGTAAAAATTA [TGCATGCA_site310] | 9.845 ± 0.092
10 | GGGAATATATTCAATTGTACATTCTTATTTTATCCA [XGTACX_site8480] | 10.7 ± 0.28
11 | TCTTTTTTTTTACATACTTTTTTCCTTTTTTTTTTA [CACACA_negctrl_site1429] | 9.99 ± 0.11
12 | TATATATATATTAGTGGTACAAGATTTTTTTCTTTT [XGTACX_site4619] | 11.2 ± 0.74
13 | TATAAACACCCATATAAACACACATACATACATACA [CACACA_site8791] | 10.6 ± 0.33
14 | TATTTAATGCAAAAACGTACATAAATAACATTCACA [XGTACX_site5356] | 11.3 ± 0.68
15 | ATATTATTTATAAGTTGTACGGTATAATATAATATA [XGTACX_site5371] | 10.8 ± 0.54
16 | AAAAAATATATATTAACACACACACTAATAAAAAAA [CACACA_site8366] | 10.1 ± 0.11
17 | AAAATTTTTTACTTTACACACATTTTGTATATTTTG [CACACA_site1730] | 9.98 ± 0.23
18 | TCTTGTAGATATATTTGTACATATATTTATGGGTAT [XGTACX_site1139] | 10.9 ± 0.47
19 | CTAGACTTTTTACAATGTACATATTTATGTATTATT [XGTACX_site1833] | 11 ± 0.65

Row | Sequence | gcPBM binding intensity (ln)
20 | TTTTTTCATAAATAATGTACATATATATATATATAT [XGTACX_site3620] | 11 ± 0.56
21 | AAAGGTGTATATAATACACACGTGTGATTAAAATTG [CACACA_site8104] | 10.13 ± 0.064
22 | TTTCAAAAAAATAGCTATATTTATATTAATGCACGA [TGCATGCA_negctrl_site63] | 10 ± 0.3
23 | TATATAACTGTCTTCAGTACACAATAAATAAAAATA [XGTACX_site8856] | 11.3 ± 0.93
24 | TAATAAAAATAAAATTGTACTAATAACATTTCATTA [XGTACX_site3703] | 10.9 ± 0.64
25 | CATATTTGATACAAGTGTACTTTATTTAAAAATTCT [XGTACX_site8408] | 11.4 ± 0.93
26 | AACTTTGAGACATAGTGTACTTACACAATCTTAATA [XGTACX_site3712] | 11.4 ± 0.86
27 | ACATTTTTTTTTTTTTTTCTTTTTCTTTTTCTTTTT [CACACA_negctrl_site1295] | 9.65 ± 0.29
28 | TAATATAATATATGCACACAAATATGTATTTATGTG [CACACA_site5210] | 10.3 ± 0.19
29 | TCGTATCTATTGAGGGTGCCTCTATAATTGATACAA [GTGCAC_site9636] | 10 ± 0.16
30 | AACCTAAGCATTCTTCAAATTATATATGTAAAATGA [CACACA_negctrl_site261] | 9.65 ± 0.11
31 | CTTACACCCATATATACACACATGTATATTTTATAT [CACACA_site4462] | 10.195 ± 0.007
32 | TACTCCTCAATATTATGTACATATAATAGTTATAAA [XGTACX_site8551] | 11.2 ± 0.79
33 | ATATATAAACACTCTTGTACATAATAATGTATATAT [XGTACX_site2451] | 10.8 ± 0.45
34 | GAAAAAATAAAATAAAGTACATAACTATAATAAAAA [XGTACX_site4807] | 11.4 ± 0.9
35 | ATATATATATGTATGTGTCCACAAGGAGATATATAT [XGTACX_site783] | 11.2 ± 0.6
36 | AAAATATTTTAATGTTGTACATTAATATATTATATA [XGTACX_site2513] | 11 ± 0.83
37 | AGTATAAAATAAATGTGTACACAAGAAAATATGTTA [XGTACX_site8381] | 11.8 ± 0.93
38 | AAAATCACAAGACACACACACACAAAAAAAAAAAAA [CACACA_site6791] | 10.1 ± 0.35

Row | Sequence | gcPBM binding intensity (ln)
39 | ATTATAAAGACATATACACACATACGTACATACATA [CACACA_site5893] | 11.5 ± 0.79
40 | AGTAAATAATAGATCGCATGTAATAACTAGTAGGAA [TGCATGCA_site948] | 10.11 ± 0.035
41 | TACATAAATATATGTGTGCACAATTTCGTATATTTA [GTGCAC_site9859] | 10.4 ± 0.28
42 | TGTACATTCGGAGTAAAAAAAAATTTATACAATTAC [CACACA_negctrl_site1451] | 10.2 ± 0.16
43 | AACAGATAAAAGGGTACACACATATATACCTGTACA [CACACA_site4285] | 11.7 ± 0.99
44 | TGTATTAAATTTTGAACACACAAAATAAAACATATA [CACACA_site1672] | 10.1 ± 0.13
45 | TTATTTATATATTCATGTACATAACATTTCATTCGA [XGTACX_site4388] | 11.1 ± 0.42
46 | TTTTAAGAATAAAATTGTACACATACATGTGTTCGC [XGTACX_site438] | 11.2 ± 0.59
47 | ATATAAATTTTTTAGAGTACTAAAATAAAATAATAT [XGTACX_site2118] | 11.2 ± 0.73
48 | TGTGTATATATATAATGTACATAAAGATTTATATAT [XGTACX_site5835] | 11.1 ± 0.57
49 | TTCTCATTCAAATTAGTGCATTTTTGTTATTACATT | 10.1 ± 0.16
50 | AAACAGAAGACATATACACACATACAAAAAAGTGCA [CACACA_site4699] | 10.2 ± 0.26
51 | TATTTACTTATATGCACACATAAATGTGAATTATGG [CACACA_site3777] | 10.2 ± 0.24
52 | TAAATAATTAAAATATGTACTGAAATGTAATTATTT [XGTACX_site5894] | 11 ± 0.76
53 | TGTATCATAAAAATAACACACGTATTTTTTTTTATT [CACACA_site1050] | 10.08 ± 0.071
54 | TAAAAAATGAAAAAGCGTACATGTTTTCTTATATTA [XGTACX_site1722] | 11.4 ± 0.71
55 | TTTTCTAAAATGAATTGTACTTGATTATTTAAAAAA [XGTACX_site6097] | 11 ± 0.68
56 | ATACTAAAAAGTATCTGTACTTATTTTAAAAATAAA [XGTACX_site4116] | 11.5 ± 1
57 | CAATATATTTGATTTACACACTTACAATGTATATAA [CACACA_site2994] | 10.5 ± 0.35
